# Experimental data: the supplement of paper PMC12217912
# This is one part of the list. Sequences were assembled here from the parent chain. Values near 0.05 are background.
# B1: TEV protease; numbered along this chain (parent)
# chain: MGESLFKGPRDYNPISSSICHLTNESDGHTTSLYGIGFGPFIITNKHLFRRNNGTLVVQSLHGVFKVKDTTTLQQHLVDGRDMIIIRMPKDFPPFPQKLKFREPQREERICLVTTNFQTKSMSSMVSDTSCTFPSGDGIFWKHWIQTKDGQCGSPLVSTRDGFIVGIHSASNFTNTNNYFTSVPKNFMELLTNQEAQQWVSGWRLNADSVLWGGHKVFMVKPEEPFQPVKEATQL
# Variants of: B1
# Assay: raw area under fraction-flipped curve 0-4 h after induction (AUC4h, not background-subtracted), DNA-recorder readout of cleavage of the substrate (dimensionless); higher = more cleavage of the substrate by the protease variant
# Conditions: temperature: 34 °C; time window: 0-4 h after rhamnose induction
# Procedure: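 In vivo DNA recorder in E. coli TOP10(DE3) ΔrhaA at 34 °C. Each TEVp single-site mutant (parent TEVp 0) is paired with a single-site variant of the 7-mer TEVs (canonical ENLYFQ|S). The substrate sits between flexible linkers in a Bxb1-sfGFP-TEVs-SsrA fusion, so cleavage stabilises Bxb1 and speeds flipping of a recombination array, read by NGS. The value is the raw area under the fraction-flipped curve over 0-4 h after rhamnose induction (AUC4h), with ≥20 reads per time point. It is not background-subtracted; inactive controls average about 0.047.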
# 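Note: Bxb1 expression induced with 0.2% (w/v) L-rhamnose at OD600 near 0.5, cultures sampled hourly, flipped fraction per protease–substrate barcode pair counted by paired-end Illumina sequencing.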
Variant,area with substrate ANLYFQS,area with substrate CNLYFQS,area with substrate DNLYFQS,area with substrate HNLYFQS,area with substrate INLYFQS,area with substrate KNLYFQS,area with substrate LNLYFQS,area with substrate MNLYFQS,area with substrate QNLYFQS,area with substrate RNLYFQS,area with substrate SNLYFQS,area with substrate TNLYFQS,area with substrate WNLYFQS,area with substrate YNLYFQS,area with substrate FNLYFQS,area with substrate GNLYFQS,area with substrate NNLYFQS,area with substrate PNLYFQS,area with substrate VNLYFQS
F187E,0.0607,0.0526,0.046,0.0452,0.0555,0.0586,0.0353,0.0488,0.0521,0.0587,0.0676,0.0579,0.0523,0.0554,–,–,–,–,–
K148G,0.0534,0.0656,0.0584,0.0633,0.0613,–,0.0713,0.0511,–,0.0721,0.0565,0.0591,0.0501,0.058,0.0267,0.0653,0.0635,0.0533,0.0614
N186M,0.0597,0.0656,0.0762,0.0612,–,–,–,–,–,–,–,0.0656,0.0599,0.0707,–,0.0662,–,0.0786,0.058
N186L,0.0672,0.0635,0.0657,0.0571,0.0608,–,–,–,0.0747,0.0425,0.0527,0.0866,0.049,–,0.0685,–,–,0.0371,–
K185T,0.0552,0.068,0.0607,0.069,0.0811,0.0674,–,0.069,–,–,0.0692,0.0657,0.0531,0.059,0.0729,0.0406,0.0814,0.0649,0.0614
Q146R,0.0659,0.0851,0.0639,0.0571,0.072,0.0734,0.0653,–,0.0642,–,0.0718,0.0599,0.0525,0.0683,0.0616,–,0.0741,0.0746,0.0743
T176Y,0.0586,0.0624,0.051,0.0501,0.0676,0.0616,0.0589,0.0552,–,–,0.0548,0.0565,0.0518,–,–,0.0472,–,0.067,0.053
V157A,0.0706,0.0632,0.0582,–,0.0075,0.0654,0.0576,–,0.0742,–,0.0593,0.066,0.0658,–,–,–,0.0983,0.0536,0.0583
F173D,0.0573,0.0721,0.0649,0.0555,0.0739,0.0682,–,0.0595,0.0762,0.056,0.0694,0.0811,0.0628,0.0549,0.0458,0.0686,0.0583,0.0748,0.0593
F173A,0.0681,0.063,0.0592,0.0466,0.0653,0.0889,0.0575,0.06,–,–,0.0537,0.0537,0.0535,–,–,0.0574,0.0601,0.0595,–
C152S,0.052,0.057,0.0823,0.0608,0.0522,0.0586,0.0621,0.0588,–,–,–,0.0588,0.0507,–,–,–,0.0506,0.0418,–
G166V,0.0466,0.0385,0.0535,0.049,0.0493,0.0494,0.0645,–,–,–,–,0.0545,0.04,0.0429,–,0.053,0.0489,0.0503,–
